In publication PMC4336329 (PLoS ONE, 2015):
Screen size: about 310,000 compounds; about 14,000 (4.5%) showed an effect of 50% or more. Effects have a minus sign here. This is one part of the list.

Each compound was assayed against human ether-à-go-go-related gene (hERG) potassium channel (human, UniProt Q12809) (assay: primary screen, population patch clamp on CHO cells stably expressing hERG).
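Also: peak tail current of the secondary pulse compared with the same well before compound.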

Sequence of human ether-à-go-go-related gene (hERG) potassium channel (Q12809 whole entry, looked up): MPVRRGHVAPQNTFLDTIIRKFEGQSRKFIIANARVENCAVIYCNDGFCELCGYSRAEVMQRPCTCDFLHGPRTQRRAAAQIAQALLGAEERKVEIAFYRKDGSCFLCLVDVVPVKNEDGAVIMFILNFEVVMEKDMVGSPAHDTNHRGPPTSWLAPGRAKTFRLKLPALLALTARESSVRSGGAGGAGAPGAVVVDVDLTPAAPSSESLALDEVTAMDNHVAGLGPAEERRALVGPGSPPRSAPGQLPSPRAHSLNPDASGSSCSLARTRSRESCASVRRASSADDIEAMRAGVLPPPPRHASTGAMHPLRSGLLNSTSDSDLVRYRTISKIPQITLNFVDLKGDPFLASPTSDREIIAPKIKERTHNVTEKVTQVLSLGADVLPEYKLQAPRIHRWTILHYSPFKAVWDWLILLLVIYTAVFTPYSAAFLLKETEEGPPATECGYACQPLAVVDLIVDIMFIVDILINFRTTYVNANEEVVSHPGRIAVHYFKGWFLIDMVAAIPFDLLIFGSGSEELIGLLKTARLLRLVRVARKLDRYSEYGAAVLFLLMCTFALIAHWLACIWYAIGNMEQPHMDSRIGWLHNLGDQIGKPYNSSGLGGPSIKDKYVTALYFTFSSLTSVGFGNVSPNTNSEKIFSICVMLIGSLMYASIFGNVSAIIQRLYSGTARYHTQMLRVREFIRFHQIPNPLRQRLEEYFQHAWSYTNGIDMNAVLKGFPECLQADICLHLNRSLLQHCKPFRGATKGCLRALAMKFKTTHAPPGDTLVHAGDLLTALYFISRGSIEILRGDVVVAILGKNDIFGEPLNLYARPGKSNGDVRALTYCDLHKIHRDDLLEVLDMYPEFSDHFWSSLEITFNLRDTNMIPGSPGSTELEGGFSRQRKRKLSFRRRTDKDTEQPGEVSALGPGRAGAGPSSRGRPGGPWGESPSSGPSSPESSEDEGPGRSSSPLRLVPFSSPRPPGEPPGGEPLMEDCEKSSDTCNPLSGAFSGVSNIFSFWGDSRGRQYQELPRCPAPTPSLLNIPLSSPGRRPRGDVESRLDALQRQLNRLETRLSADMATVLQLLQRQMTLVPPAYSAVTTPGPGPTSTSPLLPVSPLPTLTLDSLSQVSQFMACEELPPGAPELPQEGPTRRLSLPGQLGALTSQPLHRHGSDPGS

| SMILES | hERG current change (%, negative = inhibition) at 10uM [%] |
| --- | --- |
| O=Nc1c(-c2cccc([N+](=O)[O-])c2)nc2ncccn12 | 5.17 |
| Cc1nn(Cc2c(Cl)cccc2Cl)c(Cl)c1/C=C/C(=O)OCC(=O)NCC(F)(F)F | 8.16 |
| C[n+]1c2n(c3ccccc31)N=C(c1ccccc1)CS2.[Br-] | -47.3 |
| O=c1c2cc3c(nc2[nH]c(=S)n1-c1ccccc1)CCCC3 | -7.29 |
| COC(C(=O)N/N=C/c1ccc(OCC(=O)N2CCOCC2)cc1)c1ccccc1 (stereo not drawn) | 15.9 |
| CN(Cc1ccccc1)C(=O)c1[nH]cnc1C(=O)NCc1ccc(CNC(=O)OC(C)(C)C)cc1 | -6.68 |
| CCN(Cc1nc2ccccc2c(=O)[nH]1)C(=O)COc1ccccc1-c1ccccc1 | -32 |
| FC(F)(F)c1cccc(Oc2ccc3c(C(F)(F)F)cc(C(F)(F)F)nc3n2)c1 | -0.334 |
| CCCN1CCN(C(=O)Cn2ncc3c([nH]c4ccc(C)cc43)c2=O)CC1 | 4.61 |
| COc1cccc(CNC(=O)c2c(C)nn(-c3ccccc3)c2C)c1 | 19.2 |
| COc1ccccc1N1CCN(C(=O)Cn2nc(C(F)(F)F)c3c2CCC3)CC1 | -5.1 |
| CCOC(=O)CSc1n[nH]c(=O)n1CCc1ccccc1 | 8.26 |
| COC(=O)Cn1c(CCS(=O)(=O)c2ccc(C)c(C)c2)nc2ccccc21 | -3.98 |
| CC(=O)NC(Cc1ccc(F)cc1)C(=O)NC1CCN(C(=O)Nc2ccccc2C)CC1 (stereo not drawn) | 12.4 |
| COc1cc(/C=N/NC(=O)c2ccc(CSc3nncn3C)cc2)cc(OC)c1O | 31 |
| CC(C)CC(CO)N1CCN(C(=O)c2ccc(C(C)(C)C)cc2)CCC1=O (stereo not drawn) | 7.77 |
| COC(=O)c1cc(Br)c(=O)n(Cc2cccnc2)c1 | 12.1 |
| CCOc1ccccc1NC(=O)c1cccc(NC2=NC3CS(=O)(=O)CC3S2)c1 (stereo not drawn) | 7.35 |
| COC(=O)c1ccc(CNC(=O)CSc2nnc(COc3ccccc3)n2C)o1 | -13.8 |
| COc1ccc(-c2nc3ccc([N+](=O)[O-])cc3[nH]2)cc1 | 13.5 |
| Cc1nc(SCC(C)C)[nH]c(=O)c1Cc1ccccc1 | -0.329 |
| O=C(NC1CCCCC1)N1CCCc2ccccc21 | -3.2 |

| SMILES | hERG current change (%, negative = inhibition) at 10uM [%] |
| --- | --- |
| COc1cc(OC)c(/C=N/NC(=O)COc2cccc3cccnc23)c(OC)c1 | -4.3 |
| O=S(=O)(Cc1nnnn1-c1ccccc1)c1ccc(Cl)cc1 | 6.74 |
| O=C(c1cc(-c2cccs2)on1)N1CCCCC1 | -9.02 |
| Cc1cc(NC(=O)COC(=O)c2cc(S(=O)(=O)N(C)c3ccccc3)ccc2Cl)no1 | 0.766 |
| C=CCNC(=O)c1ccccc1NC(=O)c1ccccc1 | -14.3 |
| Cc1nn(CC(=O)N2CCN(C)CC2)c(=O)c2ccccc12 | -6.14 |
| C=CCn1c(SC)nnc1-c1cccc([N+](=O)[O-])c1 | -23.7 |
| CC/C(=N\NC(=O)CSc1ncccn1)c1ccc2c(c1)OCCO2 | 11.7 |
| CON(C)S(=O)(=O)c1ccc2c(c1)N(Cc1ccc(C)cc1)C(=O)C1CCCN21 (stereo not drawn) | 10.3 |
| COc1ccc(Cc2noc(CN3CCCC(C(=O)c4cccs4)C3)n2)cc1OC (stereo not drawn) | 0.434 |
| CC(C)(C)c1cc(C(=O)O)nn1-c1ccccc1 | 14.5 |
| CCn1cc([N+](=O)[O-])c(C(=O)Nc2ccc(Br)cn2)n1 | -23.6 |
| CCOc1cc(/C=C2\C(=O)ON=C2c2ccccc2)ccc1OC | 8.39 |
| O=C(Nc1ccnn1C1CCN(CCCC2CCCC2)CC1)c1ccccc1 | -73.1 |
| CCOC(=O)c1c(NC(C)=O)sc2c1CCC(C=O)=C2Sc1ccccc1 | -0.361 |
| COc1ccc(NC(=O)COc2ccc(C(=O)c3ccc(F)cc3)cc2)cc1S(N)(=O)=O | -24.7 |
| COC(=O)N/N=C/c1ccc(Oc2ccccc2)cc1 | -19.4 |
| N#CCCN(C(=O)CSc1ncccn1)c1ccc2c(c1)OCCO2 | 0.457 |
| COc1ccc(-c2noc(CCC(=O)NCC3CCN(Cc4cccc(C)c4)CC3)n2)cc1 | -60.3 |
| CCCn1c(C(O)c2ccc(OC)cc2)nc2ccccc21 (stereo not drawn) | 3.8 |
| Cc1cccc(N2CC(c3nc4ccccc4n3C)CC2=O)c1C (stereo not drawn) | -31.4 |
| c1ccc(CSc2nnnn2-c2ccccc2)cc1 | -3.94 |

| SMILES | hERG current change (%, negative = inhibition) at 10uM [%] |
| --- | --- |
| COc1cc(OC)cc(-c2nnc(Sc3ccc(C=O)cc3[N+](=O)[O-])o2)c1 | 3.98 |
| Cc1ccc(C)c(Cn2c(C(=O)O)c(C=O)c3ccccc32)c1 | -13.8 |
| CC(=O)Nc1ccc(Nc2nc(-c3cc4ccccc4oc3=O)cs2)cc1 | -0.814 |
| Cc1cccc2cc(CN(Cc3cccs3)C(=S)NCc3ccco3)c(=O)[nH]c12 | -29.8 |
| Nc1cc(N)nc(SCC(=O)NNC(=O)c2ccc(Cl)cc2)n1 | 4.05 |
| CC1c2[nH]c3ccccc3c2C[C@H]2C(=O)N(CCCN(C)C)CC(=O)N12 (stereo partly drawn) | 12.8 |
| Cc1ccc(/C=C/C(=O)OCC(=O)NCc2ccc(Cl)cc2)o1 | -13.9 |
| O=C1c2oc3ccccc3c(=O)c2C(c2cccc(O)c2)N1c1ccccn1 (stereo not drawn) | -25.2 |
| COc1cc2c(cc1OC)CN(C(=S)Nc1ccccc1)CC2 | -7.19 |
| CCOc1ccc(N2C(=O)CC(N3CCN(C(=O)c4ccco4)CC3)C2=O)cc1 (stereo not drawn) | -9.91 |
| COCc1ccc(C(=O)N2CCCC(CNC(=O)c3ccc(F)cc3)C2)o1 (stereo not drawn) | 2.5 |
| COc1ccc(-c2cc(C(F)(F)F)nc(SCC(=O)NCc3ccco3)n2)cc1OC | -7.74 |
| Cc1ccc(S(=O)(=O)N2CCC(C(=O)OCC(=O)NC3(C#N)CCCCC3)CC2)cc1C | -13.6 |
| COC(=O)c1ccc(CN2CCCC(C(=O)c3ccccc3OC)C2)cc1 (stereo not drawn) | -43.1 |
| CN(C(=O)COC(=O)c1n[nH]c2ccccc12)c1ccccc1 | 2.74 |
| CSc1ccc(CN2CCC(C(=O)NCc3ccc(C)cc3)CC2)cc1.O=C(O)C(=O)O | -87.6 |
| CCCn1c(=S)[nH]c2sc3c(c2c1=O)CCCC3 | 3.06 |
| Cc1ccc(CS(=O)(=O)CCC(=O)NCCN2CCCC2)cc1 | -1.69 |
| CC(=O)N1c2ccc(S(=O)(=O)NCCC(=O)NCCc3ccc(Cl)cc3)cc2CC1C (stereo not drawn) | 0.254 |
| COc1ccccc1-c1nnc(SCC(=O)N2CCC(C)CC2)o1 | -4.86 |
| O=C(NC1C2CC3CC(C2)CC1C3)c1ccc(Br)o1 (stereo not drawn) | -13 |
| COc1ccc(/C=C(/NC(=O)c2ccc(OC)c(OC)c2)C(=O)NCCCn2ccnc2)cc1 | 11.5 |

| SMILES | hERG current change (%, negative = inhibition) at 10uM [%] |
| --- | --- |
| C/C(=C\c1ccco1)C1C(C#N)=C(N)Oc2n[nH]c(-c3ccc(C)cc3)c21 (stereo not drawn) | 15.8 |
| Cc1snc(S(=O)(=O)/C(C#N)=N/Nc2cccc(C(F)(F)F)c2)c1C#N | 8.8 |
| COc1cccc(Oc2nnnn2-c2ccccc2)c1 | -4.26 |
| CSc1nc2ccc(S(N)(=O)=O)cc2s1 | 17.5 |
| CCc1[nH]nc2c1C(c1ccc(Br)s1)C(C#N)=C(N)O2 (stereo not drawn) | -6.12 |
| CC(=O)Nc1ccc(NC(=O)c2cc(-c3cc(C)c(C)cc3O)n[nH]2)cc1 | 23.4 |
| Cc1coc2c1c(C)cc1oc(=O)c(CC(=O)NCC(=O)O)c(C)c12 | 24.3 |
| COc1cccc(CC2CC(=O)N(c3ccc4c(C)cc(=O)oc4c3)C2=O)c1 (stereo not drawn) | -4.35 |
| CCC1(CC)NC(=O)N(CC(=O)OCC(=O)Nc2cc(OC)ccc2OC)C1=O | 5.62 |
| CSc1ccc(CNC(=O)C2Cc3cc(S(=O)(=O)N4CCCC4)ccc3N2C(C)=O)cc1 (stereo not drawn) | -38.2 |
| O=S(=O)(Nc1cc(F)ccc1F)c1cccc2nonc12 | -83.6 |
| COc1cccc(OCc2nc3ccccc3[nH]2)c1 | -4.57 |
| Cc1ccc(NC(=O)c2ccccc2NC(=O)c2cccnc2)cc1 | 14 |
| Cc1ccc(S(=O)(=O)Nc2cccc(C(=O)NCc3ccccn3)c2)cc1F | -13.9 |
| CCCCNC(=O)[C@H]1C[C@H]1[C@@H](O)[C@H](CO)NC(=O)[C@H](Cc1ccccc1)NC(=O)OC(C)(C)C | 17.6 |
| COc1cc(C2NC(=O)NC(C)=C2C(=O)OCC2CCCCC2)ccc1O (stereo not drawn) | -0.392 |
| CCOC(=O)c1cc(NC(=O)Nc2ccc(Br)cc2)c(C)nc1C | 10.4 |
| COc1ccc(NC(=O)C2CCCN2C(=O)OCc2ccccc2)cc1 (stereo not drawn) | -15.2 |
| CN(CC(=O)Nc1ccc(Cl)c(Cl)c1)C(=O)c1cccc2cccnc12 | -37.1 |
| COc1ccc(OCCCN2CCCC(C)C2)cc1 (stereo not drawn) | -32 |
| CCCNC(=O)N1CCN(S(=O)(=O)c2ccc(C)c(C)c2)CC1 | -13.2 |
